# Experimental data: the supplement of paper PMC3334620
# Over roughly 33,000 sequences, “E-score (-0.5 to 0.5)” has its median near -0.054; the highest 2% begin near 0.39. Some of the results follow.
# Biological target: Ylr278c (UniProt Q05854)
# Experiment: PBM E-score (8-mer binding enrichment) (E-score (-0.5 to 0.5)); higher = stronger / more preferred TF binding; most listed sequences are background and not binding sites
# Settings: protein concentration: 200 nM; construct: GST-DNA-binding domain
# Procedure, shortened: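 PURExpress in vitro transcription/translation supplied GST-tagged yeast transcription factors, either full-length or DNA-binding domain. Applied at about 100-200 nM to universal all-10-mer Agilent arrays double-stranded by primer extension, the bound protein was detected with fluorescent anti-GST. E-scores, modified Wilcoxon-Mann-Whitney statistics, were given by the Universal PBM Analysis Suite to ungapped eight-base words pooled with their reverse complements after masliner normalisation.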
row,Sequence,PBM E-score
1,CACGGGAG,-0.0623
2,CAGCCGAA,0.0307
3,ACGGGCCT,0.117
4,CGCCGGTA,0.352
5,AAACTATT,0.0142
6,GATCCGGC,0.407
7,CGCGAAAC,0.165
8,CGTACGTA,-0.212
9,AGCGCAGA,-0.072
10,GCATTCCA,-0.0889
11,ATGGTGAA,0.056
12,AAAACTAA,-0.0865
13,CTGATGCA,-0.168
14,ATGAATCC,-0.0186
15,ATCTTTAG,-0.0697
16,CCACTCGG,0.134
17,TATACGCA,0.0919
18,AGTCGCGC,0.193
19,CCGATGAC,0.299
20,CGTCCTGC,-0.151
21,CGATGACC,0.183
22,ACAGCGAT,-0.0558
23,ACCAATTC,0.0245
24,CGGCTCCA,0.155
25,ATTCCGCC,0.418

row,Sequence,PBM E-score
1,CAAACAGA,-0.08
2,CCAGTGCG,-0.0115
3,CATGTTGC,-0.0404
4,ATCTAGGA,-0.0971
5,ATGATAAG,-0.0364
6,AATAAGGT,0.0972
7,ACAAGCGT,-0.189
8,CCAACCCA,-0.161
9,ATTCAGGC,-0.121
10,CCACGGTC,-0.157
11,ACGACCAT,-0.302
12,AAAGGCGA,-0.234
13,GGCGCTAC,-0.0688
14,ACACGGTG,0.0947
15,CGGATCGA,0.19
16,GTGCATCA,-0.165
17,AGAGCGTC,-0.285
18,GGCAGCTA,-0.109
19,AGGTCAAT,-0.205
20,CAGCCAAC,-0.0434
21,CTATATAA,-0.288
22,CAGAACTG,-0.0814
23,AATATTCT,-0.0411
24,AGCGGTAT,0.0951
25,CGGACCCA,0.332

row,Sequence,PBM E-score
1,AAGGCAGG,-0.0925
2,AACGTGAG,-0.24
3,ACTGTACA,-0.38
4,TAAAAAAA,-0.0419
5,GGTTGAGA,0.157
6,TATCTGGA,-0.0948
7,ACTTCTAC,-0.164
8,CGCCGACA,0.281
9,CACGCCGC,0.151
10,AGCGTGTC,-0.234
11,ATTCCTAG,-0.0912
12,ACGGCTTG,-0.0376
13,CGGTGTGC,0.102
14,ACACCAAT,0.00077
15,ACCAGGAT,-0.0342
16,CCTCCGGC,0.448
17,CTATATGA,-0.0348
18,TCCTGACA,-0.164
19,CCTCTACG,-0.249
20,GCAGATCA,-0.14
21,ATTATAGG,0.121
22,AAACCAAC,-0.0742
23,CAAGTGCA,-0.362
24,ATCGTATA,-0.00578
25,AATTACAC,0.0834

row,Sequence,PBM E-score
1,GCAATTAC,0.0799
2,TAATCAAA,0.112
3,AAACCTAT,-0.23
4,CAATAAGG,-0.12
5,ACTGACCA,-0.254
6,ATGGCGGC,0.217
7,AGGCAACA,-0.2
8,AGGCGGAA,0.304
9,GGGCGGTA,0.241
10,TCGCACAA,-0.0415
11,ATACATTG,-0.106
12,ATGTAGGC,0.0824
13,CGAATTAG,-0.0466
14,GCGGACTA,0.384
15,CACCTTCG,-0.00119
16,GGGTATAC,0.108
17,TCGCTGAA,-0.0509
18,ATAAGTGG,-0.145
19,AACGTGCG,0.051
20,CTACTTCA,-0.119
21,CGCACCAC,0.0811
22,CCCACCCG,0.282
23,AACTTCGT,-0.123
24,GTTTTTGA,-0.0766
25,ATGTACTC,-0.0177

row,Sequence,PBM E-score
1,ACCCAATG,-0.243
2,ACGGCATC,0.0823
3,GTTGTGCA,-0.199
4,AAGACGGT,-0.232
5,CCGGTGGC,0.304
6,GCCTTCTA,-0.167
7,AGCCTCAA,-0.12
8,ACCTTATC,0.0556
9,ACACCTGA,-0.118
10,ACAGGCAG,-0.256
11,GTTAGCGA,0.0834
12,AAGGAATC,-0.167
13,ATTACCCG,0.213
14,ATGCTTCC,-0.0282
15,ACACGGCA,0.0815
16,CTCCGCTC,0.378
17,TCAGCTCA,0.0396
18,CACTGACA,-0.174
19,CTGTTCAC,-0.336
20,CATCAATG,-0.175
21,CTCCGGTA,0.47
22,AAAGTCTG,-0.318
23,CCTTACCC,-0.146
24,CTTCTATA,-0.247
25,CATACGAG,-0.26

row,Sequence,PBM E-score
1,AATACCCT,0.0258
2,GCGCAGGA,0.0608
3,AAAGCTTG,-0.23
4,GGGTTCTA,-0.0323
5,AAAAGCCC,0.151
6,AGTGAGGA,-0.255
7,AAGGTTGT,-0.221
8,CCCGCACA,0.263
9,TTAACTAA,0.0202
10,AACCTGGG,-0.0591
11,GCAAAGTA,-0.0936
12,TCCCCACA,-0.215
13,ACGGATCA,0.199
14,CCGGTATA,0.316
15,AAATTCTA,-0.257
16,GCTTTGCC,-0.108
17,AGCGGCGA,0.292
18,AGTCAATA,-0.0726
19,GCTTCCAA,-0.0933
20,ACGTATAG,-0.122
21,AACTTACC,-0.0568
22,GACTAAAA,0.0741
23,CTAACAAC,-0.0734
24,GTTTCCAA,-0.215
25,AGTCCCTA,-0.108

row,Sequence,PBM E-score
1,GGGTCAAA,0.0394
2,ATGCGCAG,-0.0382
3,ATAGGATA,0.0548
4,CGGGGCGC,0.333
5,ACGGCGGG,0.207
6,GGAGCAAA,0.176
7,CAAGCCTC,-0.0522
8,TTCAGAAA,-0.0962
9,AACAGGCC,0.0266
10,ATGTAATG,0.083
11,CCAAACCC,0.124
12,ACCTCAAT,-0.178
13,TAATTGGA,-0.0323
14,AAGTTTCG,0.039
15,AAGTGATA,-0.189
16,AGTACTTG,-0.052
17,CGAATATA,0.146
18,CGATCAGA,-0.167
19,CACGGAGA,0.429
20,AACATGTT,-0.146
21,CGGGCACA,0.0593
22,CTCCAGGA,-0.0335
